Measured values taken from publication PMC5031558.
These are yes or no findings as the source states them, for the method shown. In cells and extracts the contact can be indirect. Some results given as binding are weak or reduced against the parent protein; the word gives no strength. Tags and fused reporters may be left off the sequences shown.

By UniProt entry, the sequences of proteins in these tests, tags left out.
UniProt Q96EP0: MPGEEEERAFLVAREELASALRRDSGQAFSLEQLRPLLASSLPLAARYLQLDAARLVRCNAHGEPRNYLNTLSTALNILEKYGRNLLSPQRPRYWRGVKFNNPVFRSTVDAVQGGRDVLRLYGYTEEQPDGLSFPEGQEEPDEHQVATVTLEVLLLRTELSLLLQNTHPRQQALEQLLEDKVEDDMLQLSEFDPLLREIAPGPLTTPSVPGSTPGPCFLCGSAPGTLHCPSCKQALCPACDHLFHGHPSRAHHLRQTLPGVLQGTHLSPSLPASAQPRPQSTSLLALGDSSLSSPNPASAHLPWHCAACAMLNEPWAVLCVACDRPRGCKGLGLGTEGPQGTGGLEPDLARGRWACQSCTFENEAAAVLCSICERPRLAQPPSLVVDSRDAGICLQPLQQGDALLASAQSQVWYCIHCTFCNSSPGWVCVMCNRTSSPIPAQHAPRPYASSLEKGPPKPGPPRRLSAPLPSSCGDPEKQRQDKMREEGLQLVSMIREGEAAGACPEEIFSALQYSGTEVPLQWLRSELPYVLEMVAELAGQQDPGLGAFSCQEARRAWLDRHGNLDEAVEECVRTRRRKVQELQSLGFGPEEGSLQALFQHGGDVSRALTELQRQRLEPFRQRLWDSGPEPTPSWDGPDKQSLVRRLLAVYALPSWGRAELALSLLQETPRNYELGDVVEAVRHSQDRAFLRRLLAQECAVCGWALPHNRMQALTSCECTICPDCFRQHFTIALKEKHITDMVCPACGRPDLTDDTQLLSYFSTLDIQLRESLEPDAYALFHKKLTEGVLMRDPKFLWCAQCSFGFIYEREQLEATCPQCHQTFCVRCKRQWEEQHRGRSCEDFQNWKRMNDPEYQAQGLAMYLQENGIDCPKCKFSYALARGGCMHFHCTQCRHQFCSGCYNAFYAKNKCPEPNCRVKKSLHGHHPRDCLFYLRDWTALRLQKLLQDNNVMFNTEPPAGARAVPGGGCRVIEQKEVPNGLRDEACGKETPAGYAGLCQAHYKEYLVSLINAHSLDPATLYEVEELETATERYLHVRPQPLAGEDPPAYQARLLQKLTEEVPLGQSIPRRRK
UniProt Q96BN8: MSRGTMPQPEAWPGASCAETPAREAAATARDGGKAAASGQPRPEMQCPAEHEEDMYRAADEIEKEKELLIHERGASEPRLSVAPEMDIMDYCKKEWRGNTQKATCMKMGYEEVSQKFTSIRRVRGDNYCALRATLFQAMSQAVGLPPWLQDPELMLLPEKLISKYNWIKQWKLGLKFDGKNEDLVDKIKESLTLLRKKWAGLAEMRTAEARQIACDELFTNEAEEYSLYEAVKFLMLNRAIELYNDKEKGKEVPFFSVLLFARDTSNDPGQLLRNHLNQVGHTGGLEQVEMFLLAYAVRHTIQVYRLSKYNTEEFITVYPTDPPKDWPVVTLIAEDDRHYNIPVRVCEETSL

Columns and labels:
Assay in all cases: co-IP; immunoprecipitation of transiently expressed Myc-SPATA2 variants from SPATA2 KO U2OS/NOD2 cells, western blot
[1] = target: T1, Myc-SPATA2 R212X (aa 1–211) (UniProt Q9UM82)
T1 sequence: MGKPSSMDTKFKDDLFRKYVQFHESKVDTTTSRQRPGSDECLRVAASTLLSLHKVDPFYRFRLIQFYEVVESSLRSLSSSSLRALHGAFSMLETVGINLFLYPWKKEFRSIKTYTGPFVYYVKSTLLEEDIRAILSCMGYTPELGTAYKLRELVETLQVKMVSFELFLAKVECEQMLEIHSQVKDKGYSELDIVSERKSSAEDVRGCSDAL

[2] = target: T2, Myc-SPATA2 V357X (aa 1–356) (UniProt Q9UM82)
T2 sequence: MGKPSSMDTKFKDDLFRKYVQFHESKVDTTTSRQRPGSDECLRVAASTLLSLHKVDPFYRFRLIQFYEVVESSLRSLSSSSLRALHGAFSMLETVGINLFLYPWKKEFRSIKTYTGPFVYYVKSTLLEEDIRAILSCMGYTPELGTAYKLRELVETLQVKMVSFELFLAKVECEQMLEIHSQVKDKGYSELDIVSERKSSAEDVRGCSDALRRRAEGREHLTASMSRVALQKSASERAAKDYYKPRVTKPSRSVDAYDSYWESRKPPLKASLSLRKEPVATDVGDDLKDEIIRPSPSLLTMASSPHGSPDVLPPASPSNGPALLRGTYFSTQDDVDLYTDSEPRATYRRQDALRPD

Myc-SPATA2 wild type = target: T3, Myc-SPATA2 wild type (UniProt Q9UM82)
T3 sequence: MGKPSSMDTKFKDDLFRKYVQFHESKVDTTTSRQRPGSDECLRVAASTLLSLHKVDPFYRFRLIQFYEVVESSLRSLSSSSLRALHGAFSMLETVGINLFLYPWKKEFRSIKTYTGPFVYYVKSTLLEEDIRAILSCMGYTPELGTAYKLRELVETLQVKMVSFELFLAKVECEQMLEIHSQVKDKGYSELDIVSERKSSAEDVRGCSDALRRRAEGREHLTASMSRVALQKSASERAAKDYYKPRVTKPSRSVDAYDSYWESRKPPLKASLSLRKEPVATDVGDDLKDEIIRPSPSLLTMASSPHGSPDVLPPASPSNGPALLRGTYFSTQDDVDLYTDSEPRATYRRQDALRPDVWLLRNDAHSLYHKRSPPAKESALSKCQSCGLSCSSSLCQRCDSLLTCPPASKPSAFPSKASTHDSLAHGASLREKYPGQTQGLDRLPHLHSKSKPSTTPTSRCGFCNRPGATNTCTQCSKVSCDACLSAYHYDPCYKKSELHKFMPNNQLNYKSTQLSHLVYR

binding [1] | binding [2] | binding (Myc-SPATA2 wild type) | Substance
no binding | binds | binds | HOIP (endogenous) (from UniProt Q96EP0 1-1072)
– | – | no binding | OTULIN (endogenous) (from UniProt Q96BN8 1-352)
